# Data reported in patent publication US20210196654A1, “METHOD OF TREATING CONDITIONS” (Clexio Biosciences Ltd., priority 2019, published 2021).
# Test system: liver of Crl:CD(SD) rats
# Assay: In vivo single cell gel electrophoresis (comet) assay in liver
smiles,measurement,setting,value
"CN[C@]1(c2ccccc2Cl)CCCCC1=O [esketamine, (2S)-2-(2-Chlorophenyl)-2-(methylamino) cyclohexanone]",no observed genotoxic effect level for comet tail intensity in liver,female rats,12.5 mg/kg/day
same,no observed genotoxic effect level for comet tail intensity in liver,male rats,37.50 mg/kg/day
